In paper PMC5075699:

Assays:
nontransgenic mice = test: Pilot Morris water maze #1 (spatial learning and memory); settings: 72-hour probe trial, one sample t test against 25%
[1] = ref Sidrauski et al., 2013; Halliday et al., 2015; cited from earlier work

Compound: O=C(COc1ccc(Cl)cc1)NC1CCC(NC(=O)COc2ccc(Cl)cc2)CC1 (stereo not drawn) [ISRIB]
- time in the target quadrant compared to chance (nontransgenic mice; 0.1 mpk, p = 0.85): did not
- time in the target quadrant compared to chance (nontransgenic mice; 0.25 mpk, p = 0.009): spent significantly more time in the target quadrant compared to chance
- blood-brain-barrier penetration [1]: not significantly excluded from the brain by the blood–brain-barrier
